Results: PubChem BioAssay AID1508624 (National Center for Advancing Translational Sciences (NCATS), 2021)
Out of some 48,000 compounds screened, about 120 (0.25%) were called active. Not shown: some 4% with an inconclusive outcome. Calls follow the shape of the dose curve; as a rule, active = well fitted activation curve with a large enough effect; inconclusive = small, poorly fitted or top-dose-only effect, or another doubt; inactive = no such curve, though single readings can be large or run the other way. This is one part of the list.

Assay: Primary qHTS for Identification of Small Molecule Activators of Huntingtin-Antisense Promoter Activity; also: nearly all actives have a fitted effect of over 55% in size
Conditions: HEK293 HTT-AS promoter firefly luciferase reporter, 24 h; series mostly up to 57.5 µM; activity change, positive = activation: at the top concentration
Method in brief: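 HEK293 cells carrying firefly luciferase reporters were seeded at 2,500 per well in Opti-MEM and cultured for 24 h. They were then treated with compounds at up to 57.5 uM final for 24 h at 37 degrees C before Dual-Glo luminescence readout.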

Activity change, positive = activation, inactive:
O=C(NCCn1cc(SCc2ccccc2Cl)c2ccccc21)c1cccs1 -23.3%
Cc1cc(C)cc(NC(=O)Cn2cc(S(=O)(=O)NC(C)(C)C)c(S(=O)(=O)NC(C)(C)C)c2)c1 -47.1%
N#CC(c1ccnc(NCCc2cccnc2)n1)c1nc2ccccc2s1 (centres undefined) -29.7%
CCOc1ccccc1NC(=O)CSc1nnc2[nH]c(=O)cc(-c3ccccc3)n12 23.3%
O=C(Nc1ccccc1Cl)C1CCN(c2nc3ccccc3nc2C(F)(F)F)CC1 -3.68%
CCN1CCN(Cc2nc3cc(NC(=O)c4cc(OC)c(OC)c(OC)c4)ccc3n2CC)CC1 -0.0085%
Cc1ccc(CNC(=O)N2CCC(CN3CCC(C)CC3)CC2)cc1 -6.46%
COc1ccc(S(=O)(=O)n2nc(-c3ccco3)nc2NCc2ccc(N(C)C)cc2)cc1 -10.5%
COc1ccc(S(=O)(=O)c2cn(CC(=O)Nc3cc(C)ccc3C)c3ccccc3c2=O)cc1 7.09%
CCC1CN(C(=O)NCc2ccc(C)cc2)c2cc(Cl)ccc2O1 (centres undefined) -29.8%
COc1ccc(NC(=O)Cn2cnc3sc(C)c(S(=O)(=O)N4CCN(c5ccccc5OC)CC4)c3c2=O)cc1OC 10.7%
CC(C)c1ccc(NC(=O)CN2C(=O)COc3ccc(S(=O)(=O)N4CCCCC4)cc32)cc1 -31.8%
Cc1ccc2scc(N3CCc4ccccc4C3)c(=O)c2c1 21.3%
Cc1ccc(C)c(N2CCN(C(=O)Cn3ncc4c(=O)oc5ccccc5c43)CC2)c1 -1.47%
COc1cc(OC)cc(-c2nc3nc(C)c(CCC(=O)Nc4ccc(C)c(C)c4)c(C)n3n2)c1 -7.92%
Cc1cc(-c2nc3ncccc3o2)ccc1NC(=O)COc1ccccc1C 30.6%
CCOC(=O)c1ccccc1NC(=O)CSc1ccc(-c2cccs2)nn1 -23.4%
O=c1c2oc3ccccc3c2n(Cc2cccc(Cl)c2)c(=O)n1Cc1ccco1 -41.6%
Cc1ccc2occ(CC(=O)N(Cc3ccc(Cl)cc3)C3CCS(=O)(=O)C3)c2c1 (centres undefined) -24.1%
COc1ccc(-c2cc(C(F)(F)F)nc(SCCC(=O)Nc3ccccc3F)n2)cc1 -5.69%
O=C(Cc1ccccc1)NC1CC(=O)N(c2ccccc2)C1 (centres undefined) -13.6%
Cn1cc(S(=O)(=O)c2cccc(Cl)c2)c(=O)c2cc(F)c(N3CCN(c4ccc(F)cc4)CC3)cc21 3.6%
Cc1ccc(-c2noc(CNS(=O)(=O)c3ccc(F)cc3)n2)cc1 -21.4%
CCc1ccc(Nc2nn(-c3ccc(OC(F)(F)F)cc3)nc2C(C)=O)cc1 0.637%
COc1ccccc1N1CCN(C(=O)CN2C(=O)COc3ccc(S(=O)(=O)N4CCCCCC4)cc32)CC1 -14%
Cc1cccc(OCC(=O)Nc2nc3c(s2)CC(C(C)(C)C)CC3)c1C (centres undefined) -8.21%
CCN(CC)c1ccc(NC(=O)c2cnc3c(-c4ccccc4)c(C)nn3c2C)c(C)c1 -23.9%
Cc1c(NC(=O)c2cc(-c3ccc(F)cc3)on2)c(=O)n(-c2ccccc2)n1C -3.82%
Cc1nnc(N2CCN(C(=O)NC(C)C)CC2)c2nn(-c3ccccc3)c(C)c12 6.02%
COc1ccc(CNC(=O)CN2C(=O)COc3ccc(S(=O)(=O)Nc4ccccc4)cc32)cc1 -20.6%
CCOC(=O)c1cc2c(=O)n3ccccc3nc2n(C(C)C)c1=NC(=O)c1cc2ccccc2o1 5.95%
O=C(Nc1ccc(F)c(F)c1)c1cc(S(=O)(=O)NC2CCCCCC2)ccc1F -38.2%
CCc1ccc(C(=O)c2cn(CC(=O)NC3CCCCC3)c3nc(C)ccc3c2=O)cc1 -16.5%
O=C(c1ccccc1)n1nc(-c2ccccc2)nc1NCc1ccc(F)cc1 18.3%
COc1ccc(-n2nc(C(=O)N3CCCC(C)C3)c3c4ccccc4n(C)c3c2=O)cc1 (centres undefined) -13.9%
COc1ccc(-c2cc(C(F)(F)F)nc(S(C)(=O)=O)n2)cc1 -93.9%
CCOC(=O)c1sc2ccccc2c1S(=O)(=O)Nc1ccc(CC)cc1 -35.6%
CNC(=O)c1c(NC(=O)c2ccc(S(=O)(=O)N3CCCCC3)cc2)sc2c1CCC2 -17.6%
CCOc1ccc(N2CC(NC(=O)/C=C\c3ccc4c(c3)OCO4)CC2=O)cc1 (centres undefined) -13%
COc1ccc(-n2ccnc(NCc3ccccc3OC)c2=O)cc1 -7.37%
O=S(=O)(Nc1cc(F)ccc1F)c1ccc2[nH]c3c(c2c1)CCCC3 -25.9%
NS(=O)(=O)c1ccc(CCNc2nccn(-c3cccc(C(F)(F)F)c3)c2=O)cc1 -26.5%
CSc1nc2c(c(=O)[nH]1)C(c1cccc(F)c1F)CC(=O)N2 (centres undefined) -10.4%
CC(C)(C)C(=O)Nc1ccc2nc(SCC(=O)N3CCOCC3)sc2c1 -7.61%
COc1cccc(CNC(=O)c2ccc3c(c2)c(C)c(C)n3Cc2ccccc2)c1OC -18.7%
CC(C)c1ccc(NC(=O)CS(=O)(=O)c2cccc3nsnc23)cc1 -3.96%
CCCCN(CCCC)CCNC(=O)Cn1nc(C)n2c(cc3sccc32)c1=O -14.9%
COc1ccc(NS(=O)(=O)c2cc(Br)cc3c2N(C(=O)C2CC2)CC3)cc1OC -43.9%
CCCCNC(=O)c1nn(-c2ccc(CC)cc2)nc1CO 2.69%
Cc1cccc(NC(=O)C2CCN(S(=O)(=O)c3ccc(F)cc3)CC2)c1C -12.9%
CC1CCC(NC(=O)c2ccc3c(c2)N(Cc2cccc(Cl)c2)C(=O)c2ccccc2S3(=O)=O)CC1 (centres undefined) 12.1%
CCc1ccccc1NC(=O)Cn1nnc(C(=O)NCc2ccccc2Cl)c1N -31%
CCN(CC)CC(C)CNC(=O)c1cc(-c2ccc(Br)s2)nc2ccccc12 (centres undefined) -18.9%
COc1cccc(CN(C(=O)c2oc3cc(C)ccc3c2C)C2CCS(=O)(=O)C2)c1 (centres undefined) -13.1%
CCOC(=O)c1ccc(NS(=O)(=O)c2ccc3c(c2)n(C)c(=O)n3C)cc1 -33.5%
CCOc1ccc(NC(=O)C2CC(=O)N(c3ccc(C(C)C)cc3)C2)cc1 (centres undefined) -2.49%
Cn1c(=O)n(-c2ccc3c(c2)OCO3)c2nc(-c3ccccc3)nc(C(N)=O)c21 -9.06%
Cc1cc(C)cc(NC(=O)CSc2cc(C)[nH]c(=O)n2)c1 -19.5%
COc1cccc2c1cc1c(=O)n(CC(=O)N3CCN(c4cccc(C)c4)C(C)C3)nc(C)n12 (centres undefined) -4.62%
CCCC1=Nc2cc(C(=O)NC3CCCC3)ccc2Sc2ccc(C)cc21 -32.1%
CCOC(=O)CC(NC(=O)Cn1nnc(-c2ccc(C(F)(F)F)cc2)n1)c1ccc(OC)cc1 (centres undefined) -24.6%
CC(=O)Nc1ccc(-c2cc(C(=O)O)c3c(-c4ccccc4)[nH]nc3n2)cc1 -7.2%
COc1ccc(C(=O)N2CCN(Cc3cc(=O)n4nc(-c5ccccc5C)sc4n3)CC2)cc1OC -18.6%
C[C@@H](O[C@H]1OCCN(Cc2n[nH]c(=O)[nH]2)[C@@H]1c1ccc(F)cc1)c1cc(C(F)(F)F)cc(C(F)(F)F)c1 -48.4%
Cc1c(C)c2c(cc(C)c3c(-c4ccccc4)coc32)oc1=O -12.3%
O=C(NC1CC(=O)N(c2cccc(F)c2)C1)C1CCCC1 (centres undefined) -9.05%
COc1cc(-c2nc(Cn3nnc(C(=O)Nc4ccccc4)c3C)c(C)o2)cc(OC)c1OC -29.4%
Cc1ccc(CNC(=O)c2cccn2-c2nnc(N3CCCCC3)s2)cc1 -3.68%
COc1ccccc1-n1ncc2c(=O)[nH]c(SCC(=O)Nc3ccc(Cl)cc3)nc21 -24%
O=C(Nc1cc2c(cc1C(=O)c1ccccc1)OCCO2)c1ccc(Br)cc1 -5.98%
CN(C)CCN(Cc1ccccc1)S(=O)(=O)c1ccc2[nH]c(=O)ccc2c1 -26.5%
O=C(c1cccn1-c1nnc(N2CCCC2)s1)N1CCN(c2ccccc2)CC1 -3.59%
CCOC(=O)COc1ccc2c(C)c(CCN(CC)CC)c(=O)oc2c1Cl -1.05%
Cc1ccccc1-c1nc(SCC(=O)NCc2ccco2)c2c(=O)n(C)c(=O)n(C)c2n1 6.41%
COc1ccc2oc(=O)c(-c3csc(-c4ccc(Br)cc4)n3)cc2c1 0.734%
COc1cccc(-n2cc(C(=O)NCCc3ccc(C)cc3)c3ccccc3c2=O)c1 -27.4%
CCN(CC)CCCNC(=O)CN1C(=O)CCn2nc(-c3cn(C)c4ccccc34)cc21 -4.38%
COc1ccc(-c2nc3c4ccccc4n(CC(=O)N4CCN(c5ccccc5OC)CC4)c(=O)n3n2)cc1 -0.735%
COc1ccc(CCNC(=O)c2ccc3c(c2)c(C)c(C)n3Cc2ccc(F)cc2)c(OC)c1OC -33.3%
Cc1ccc2nc(-c3ccccc3F)c(Nc3ccc(Cl)cc3)n2c1 -28.6%
COc1cccc(-n2c(=O)c3c4c(sc3n(Cc3ccc(C)cc3)c2=O)CCCC4)c1 -8.62%
O=S(=O)(NCc1ccc(F)cc1)c1ccc(-c2cnc(C3CC3)o2)cc1 -22.9%
Cc1nnc(NC(=O)CSCc2cc(=O)c3cc(Cl)ccc3[nH]2)s1 -5.44%
Cc1ccc(C(=O)c2cn(CC(=O)NC3CCCCC3)c3nc(C)ccc3c2=O)cc1 -7.32%
Cc1c(C(=O)N2CCCC2)oc2c1-c1nn(CC(=O)NCCCOC(C)C)cc1CC2 -23.9%
COc1cccc(C(=O)Nc2ccccc2C(=O)OCc2cc(=O)n3nc(C4CC4)sc3n2)c1 2.97%
COc1cccc(C(=O)Nc2ccc3nc(SCC(=O)N4CCOCC4)sc3c2)c1 -4.02%
CCCCS(=O)(=O)c1oc(-c2cccs2)nc1S(=O)(=O)c1ccccc1 -95.2%
COc1cc2nc(NCCC(C)C)n3nc(-c4ccccc4)nc3c2cc1OC -16.8%
Cc1cc(C)n2c(Nc3ccc(Cl)cc3)c(-c3ccsc3)nc2n1 -32.1%
Cc1ccc2c(CN3CCN(C(=O)c4ccc(F)cc4)CC3)cc(=O)oc2c1 -14.6%
Cc1ccc(OCC(=O)N(c2ccc(C)cc2)S(=O)(=O)c2ccc(Cl)cc2)cc1 16.2% [at 11.5 µM, percent change from vehicle, -100% = no light]
CCOc1ccccc1NC(=O)CSc1nc(=O)[nH]c2c1CCCC2 -20.8%
CCc1c2c(nc3ccc(OC(=O)N4CCC(N5CCCCC5)CC4)cc13)-c1cc3c(c(=O)n1C2)COC(=O)[C@]3(O)CC
